# Where a chain is given by its changes, count along the chain named. This is one part of the list.
# B1: UUUUGGC (DNA:RNA)
# RNA: GGGAGACCGGAAUUCAGAUUGUCCUUUUGGCUUAAAUCCCGUCGUAGCCACCA
# DNA 1: CAATCTGAATTCCGGTCTCCC
# DNA 2: TGGTGGCTACGACGGGATT
# B2: CCAAUGC (DNA:RNA)
# RNA: B1 RNA with U25C, U26C, U27A, U28A, G29U
# DNA 1: CAATCTGAATTCCGGTCTCCC
# DNA 2: TGGTGGCTACGACGGGATT
# B3: GAUCACG (DNA:RNA)
# RNA: B1 RNA with U25G, U26A, U28C, G29A, G30C, C31G
# DNA 1: CAATCTGAATTCCGGTCTCCC
# DNA 2: TGGTGGCTACGACGGGATT
# B4: UGUUGCU (DNA:RNA)
# RNA: B1 RNA with U26G, G30C, C31U
# DNA 1: CAATCTGAATTCCGGTCTCCC
# DNA 2: TGGTGGCTACGACGGGATT
# B5: UUCGCAA (DNA:RNA)
# RNA: B1 RNA with U27C, U28G, G29C, G30A, C31A
# DNA 1: CAATCTGAATTCCGGTCTCCC
# DNA 2: TGGTGGCTACGACGGGATT
# B6: GCGUGUA (DNA:RNA)
# RNA: B1 RNA with U25G, U26C, U27G, G30U, C31A
# DNA 1: CAATCTGAATTCCGGTCTCCC
# DNA 2: TGGTGGCTACGACGGGATT
# B7: ACUGUGG (DNA:RNA)
# RNA: B1 RNA with U25A, U26C, U28G, G29U, C31G
# DNA 1: CAATCTGAATTCCGGTCTCCC
# DNA 2: TGGTGGCTACGACGGGATT
# B8: CUUGAAU (DNA:RNA)
# RNA: B1 RNA with U25C, U28G, G29A, G30A, C31U
# DNA 1: CAATCTGAATTCCGGTCTCCC
# DNA 2: TGGTGGCTACGACGGGATT
# B9: UCCCGUA (DNA:RNA)
# RNA: B1 RNA with U26C, U27C, U28C, G30U, C31A
# DNA 1: CAATCTGAATTCCGGTCTCCC
# DNA 2: TGGTGGCTACGACGGGATT
# B10: GUCCGCA (DNA:RNA)
# RNA: B1 RNA with U25G, U27C, U28C, G30C, C31A
# DNA 1: CAATCTGAATTCCGGTCTCCC
# DNA 2: TGGTGGCTACGACGGGATT
# B11: AUAAAUC (DNA:RNA)
# RNA: B1 RNA with U25A, U27A, U28A, G29A, G30U
# DNA 1: CAATCTGAATTCCGGTCTCCC
# DNA 2: TGGTGGCTACGACGGGATT
# B12: AUUGAAA (DNA:RNA)
# RNA: B1 RNA with U25A, U28G, G29A, G30A, C31A
# DNA 1: CAATCTGAATTCCGGTCTCCC
# DNA 2: TGGTGGCTACGACGGGATT
# B13: GUUUAUG (DNA:RNA)
# RNA: B1 RNA with U25G, G29A, G30U, C31G
# DNA 1: CAATCTGAATTCCGGTCTCCC
# DNA 2: TGGTGGCTACGACGGGATT
# B14: AGCUACC (DNA:RNA)
# RNA: B1 RNA with U25A, U26G, U27C, G29A, G30C
# DNA 1: CAATCTGAATTCCGGTCTCCC
# DNA 2: TGGTGGCTACGACGGGATT
# B15: GGACGUU (DNA:RNA)
# RNA: B1 RNA with U25G, U26G, U27A, U28C, G30U, C31U
# DNA 1: CAATCTGAATTCCGGTCTCCC
# DNA 2: TGGTGGCTACGACGGGATT
# B16: GCGUCCG (DNA:RNA)
# RNA: B1 RNA with U25G, U26C, U27G, G29C, G30C, C31G
# DNA 1: CAATCTGAATTCCGGTCTCCC
# DNA 2: TGGTGGCTACGACGGGATT
# B17: AGUAGAA (DNA:RNA)
# RNA: B1 RNA with U25A, U26G, U28A, G30A, C31A
# DNA 1: CAATCTGAATTCCGGTCTCCC
# DNA 2: TGGTGGCTACGACGGGATT
# B18: UUCUCAG (DNA:RNA)
# RNA: B1 RNA with U27C, G29C, G30A, C31G
# DNA 1: CAATCTGAATTCCGGTCTCCC
# DNA 2: TGGTGGCTACGACGGGATT
# B19: UCGUGGU (DNA:RNA)
# RNA: B1 RNA with U26C, U27G, C31U
# DNA 1: CAATCTGAATTCCGGTCTCCC
# DNA 2: TGGTGGCTACGACGGGATT
# B20: AUCUGGC (DNA:RNA)
# RNA: B1 RNA with U25A, U27C
# DNA 1: CAATCTGAATTCCGGTCTCCC
# DNA 2: TGGTGGCTACGACGGGATT
# B21: GAAGGUA (DNA:RNA)
# RNA: B1 RNA with U25G, U26A, U27A, U28G, G30U, C31A
# DNA 1: CAATCTGAATTCCGGTCTCCC
# DNA 2: TGGTGGCTACGACGGGATT
# B22: UACACUC (DNA:RNA)
# RNA: B1 RNA with U26A, U27C, U28A, G29C, G30U
# DNA 1: CAATCTGAATTCCGGTCTCCC
# DNA 2: TGGTGGCTACGACGGGATT
# B23: CACCUCU (DNA:RNA)
# RNA: GGGAGACCGGAAUUCAGAUUGUCCCACCUCUUUAAAUCCCGUCGUAGCCACCA
# DNA 1: CAATCTGAATTCCGGTCTCCC
# DNA 2: TGGTGGCTACGACGGGATT
# B24: CUGUACA (DNA:RNA)
# RNA: B23 RNA with A26U, C27G, C28U, U29A, U31A
# DNA 1: CAATCTGAATTCCGGTCTCCC
# DNA 2: TGGTGGCTACGACGGGATT
# B25: GCGUGUG (DNA:RNA)
# RNA: B1 RNA with U25G, U26C, U27G, G30U, C31G
# DNA 1: CAATCTGAATTCCGGTCTCCC
# DNA 2: TGGTGGCTACGACGGGATT
# B26: UAGCUUA (DNA:RNA)
# RNA: B23 RNA with C25U, C27G, C30U, U31A
# DNA 1: CAATCTGAATTCCGGTCTCCC
# DNA 2: TGGTGGCTACGACGGGATT
# B27: UUAGGAG (DNA:RNA)
# RNA: B1 RNA with U27A, U28G, G30A, C31G
# DNA 1: CAATCTGAATTCCGGTCTCCC
# DNA 2: TGGTGGCTACGACGGGATT
# B28: UUCAAUU (DNA:RNA)
# RNA: B23 RNA with C25U, A26U, C28A, U29A, C30U
# DNA 1: CAATCTGAATTCCGGTCTCCC
# DNA 2: TGGTGGCTACGACGGGATT
# B29: UAUGUUU (DNA:RNA)
# RNA: B23 RNA with C25U, C27U, C28G, C30U
# DNA 1: CAATCTGAATTCCGGTCTCCC
# DNA 2: TGGTGGCTACGACGGGATT
# B30: CCAUUGA (DNA:RNA)
# RNA: B23 RNA with A26C, C27A, C28U, C30G, U31A
# DNA 1: CAATCTGAATTCCGGTCTCCC
# DNA 2: TGGTGGCTACGACGGGATT
# B31: AAGUAAA (DNA:RNA)
# RNA: B23 RNA with C25A, C27G, C28U, U29A, C30A, U31A
# DNA 1: CAATCTGAATTCCGGTCTCCC
# DNA 2: TGGTGGCTACGACGGGATT
# Target: T1, RBFOX1 RRM RbFoxmut (Fox-RRM*) (Homo sapiens, UniProt Q9NWB1 109-208, R118D;E147R;N151S;E152T)
# T1 sequence: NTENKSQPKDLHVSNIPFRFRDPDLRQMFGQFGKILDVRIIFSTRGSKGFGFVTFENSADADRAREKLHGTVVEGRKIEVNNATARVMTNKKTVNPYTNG
# Assay: EMSA; HiTS-Eq, 1 nM pool, 10 min; buffer printed only for the single-RNA assays: 10 mM Tris pH 7.5, 150 mM NaCl, 3.4 mM EDTA, 0.001% NP-40, 30 C
# Details: tags: His6 N-terminal (pET28a); label: 5' 32P
# Method in brief: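 A pool of RNA with 7 randomized nucleotides, 5′-radiolabelled and with DNA-annealed flanks, was equilibrated at 1 nM for 10 min in 50 µL with purified RbFox RRM, wild type or mutant, across increasing protein concentrations. Free RNA was separated by 8% native PAGE, excised, reverse-transcribed, barcoded by PCR and sequenced. Relative association constants were obtained from read-count changes of each RNA species versus the control reaction and normalised to the cognate motif.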
row,Binder,binding signal
1,B1,0.11 KA relative to UGCAUGU
2,B2,0.0919 KA relative to UGCAUGU
3,B3,0.0819 KA relative to UGCAUGU
4,B4,0.138 KA relative to UGCAUGU
5,B5,0.068 KA relative to UGCAUGU
6,B6,0.266 KA relative to UGCAUGU
7,B7,0.109 KA relative to UGCAUGU
8,B8,0.104 KA relative to UGCAUGU
9,B9,0.12 KA relative to UGCAUGU
10,B10,0.107 KA relative to UGCAUGU
11,B11,0.0815 KA relative to UGCAUGU
12,B12,0.0994 KA relative to UGCAUGU
13,B13,0.172 KA relative to UGCAUGU
14,B14,0.082 KA relative to UGCAUGU
15,B15,0.0995 KA relative to UGCAUGU
16,B16,0.135 KA relative to UGCAUGU

row,Binder,binding signal
1,B17,0.135 KA relative to UGCAUGU
2,B18,0.0887 KA relative to UGCAUGU
3,B19,0.137 KA relative to UGCAUGU
4,B20,0.104 KA relative to UGCAUGU
5,B21,0.112 KA relative to UGCAUGU
6,B22,0.0474 KA relative to UGCAUGU
7,B23,0.0757 KA relative to UGCAUGU
8,B24,0.0779 KA relative to UGCAUGU
9,B25,0.236 KA relative to UGCAUGU
10,B26,0.134 KA relative to UGCAUGU
11,B27,0.129 KA relative to UGCAUGU
12,B28,0.0592 KA relative to UGCAUGU
13,B29,0.134 KA relative to UGCAUGU
14,B30,0.124 KA relative to UGCAUGU
15,B31,0.124 KA relative to UGCAUGU

# — publication PMC9911399, “Two distinct binding modes provide the RNA-binding protein RbFox with extraordinary sequence specificity”
